The text below walks through data of the BET-seq Pho4 binding data (Le et al. 2018).

The other results are listed elsewhere or left out. These are noisy estimates, calculated here from bound and input reads.

This test concerns the target T1, Pho4 (S. cerevisiae) (UniProt P07270).
T1 sequence: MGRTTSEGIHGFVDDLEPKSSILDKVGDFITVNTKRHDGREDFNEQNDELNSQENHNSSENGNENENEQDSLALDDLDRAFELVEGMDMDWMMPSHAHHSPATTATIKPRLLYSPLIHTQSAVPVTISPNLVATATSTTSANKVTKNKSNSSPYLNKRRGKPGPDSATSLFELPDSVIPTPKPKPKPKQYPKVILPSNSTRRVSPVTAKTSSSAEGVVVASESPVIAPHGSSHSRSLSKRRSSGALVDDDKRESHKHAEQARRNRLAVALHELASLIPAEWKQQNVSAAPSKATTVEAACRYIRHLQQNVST
The test is described as follows: relative binding free energy (BET-seq); higher = weaker binding. The note with it: reference: library average.
TGGTGCACGTGCACGG: the “relative binding free energy” value is -0.12 kcal/mol.

With TGTGGCACGTGGGCAC, the “relative binding free energy” value was -0.16 kcal/mol.

As to GGGTACACGTGTATTT, the “relative binding free energy” value was 0.23 kcal/mol.

CATAACACGTGGGTGT: the “relative binding free energy” value is -0.15 kcal/mol.

As for GGGTACACGTGTTGAA, the “relative binding free energy” value is 0.06 kcal/mol.

On to ATCCTCACGTGTAGGT, for which the “relative binding free energy” value is 0.27 kcal/mol.

For the sequence TTCGGCACGTGATGGG, the “relative binding free energy” value was -0.01 kcal/mol.

Regarding ATCTACACGTGGGGCT, the “relative binding free energy” value turned out to be 0.26 kcal/mol.

Turning to CAAGGCACGTGGATGG, the “relative binding free energy” value was -0.03 kcal/mol.

For GGTGTCACGTGGTATG, the “relative binding free energy” value stood at 0.12 kcal/mol.

For GACTTCACGTGTAGTT, the “relative binding free energy” value amounted to 0.33 kcal/mol.

Turning to GTAGACACGTGCTTTT, the “relative binding free energy” value stood at 0.11 kcal/mol.

As for ATGAACACGTGTTGGT, the “relative binding free energy” value turned out to be 0.16 kcal/mol.

Regarding TGGCGCACGTGGCTAG, the “relative binding free energy” value was -0.16 kcal/mol.

Take TAGGTCACGTGGTCGT: the “relative binding free energy” value worked out at 0.04 kcal/mol.

Consider TATTTCACGTGGAAGA, for which the “relative binding free energy” value came out at 0.28 kcal/mol.

For the sequence TTAATCACGTGGTTAA, the “relative binding free energy” value turned out to be 0.03 kcal/mol.

With ATTATCACGTGGGCGA, the “relative binding free energy” value came out at 0 kcal/mol.

As to GATTTCACGTGTCGGG, the “relative binding free energy” value worked out at 0.44 kcal/mol.

For the sequence TTTTACACGTGAATTT, the “relative binding free energy” value stood at 0.17 kcal/mol.

On to AGTATCACGTGTTTGG, for which the “relative binding free energy” value worked out at 0.14 kcal/mol.

As to TGAAGCACGTGTGAAG, the “relative binding free energy” value turned out to be 0.04 kcal/mol.

In the case of TCTTTCACGTGTGTTC, the “relative binding free energy” value amounted to 0.14 kcal/mol.

Consider TTTTCCACGTGTATTG, for which the “relative binding free energy” value was 0 kcal/mol.

Take TGTTACACGTGCGGGG: the “relative binding free energy” value was 0.01 kcal/mol.

Take GGTGCCACGTGGGTAG: the “relative binding free energy” value was -0.13 kcal/mol.

Regarding AGTAACACGTGGTGCT, the “relative binding free energy” value is -0.18 kcal/mol.

TGTTGCACGTGATCAG: the “relative binding free energy” value worked out at 0.07 kcal/mol.

On to TGTAACACGTGTGGTG, for which the “relative binding free energy” value is -0.01 kcal/mol.

For the sequence TTGGCCACGTGGAGGT, the “relative binding free energy” value was -0.09 kcal/mol.

As to CTTTACACGTGTATTA, the “relative binding free energy” value stood at 0.16 kcal/mol.

As to TAGTGCACGTGAGGCA, the “relative binding free energy” value is 0.13 kcal/mol.

GTTGTCACGTGTCAAG: the “relative binding free energy” value came out at 0.15 kcal/mol.

With GTTATCACGTGGACAT, the “relative binding free energy” value is 0.31 kcal/mol.

With ATGTACACGTGGGTGA, the “relative binding free energy” value was -0.18 kcal/mol.

As to ATAGGCACGTGGGCTG, the “relative binding free energy” value is -0.34 kcal/mol.

As to TACTTCACGTGGTGGT, the “relative binding free energy” value amounted to 0.14 kcal/mol.

Take AGATGCACGTGGGAAT: the “relative binding free energy” value is 0.04 kcal/mol.

In the case of TGAGTCACGTGAAATT, the “relative binding free energy” value was 0.32 kcal/mol.

For the sequence ACAGTCACGTGTTATT, the “relative binding free energy” value was 0.08 kcal/mol.

Take GTGGTCACGTGCGTAG: the “relative binding free energy” value was 0.1 kcal/mol.

On to ACGGTCACGTGCTGGT, for which the “relative binding free energy” value is -0.12 kcal/mol.

Consider GGTAACACGTGGAATT, for which the “relative binding free energy” value was 0.11 kcal/mol.

Turning to GTGTCCACGTGTGGAG, the “relative binding free energy” value stood at 0 kcal/mol.

Turning to ACGGGCACGTGGTTGT, the “relative binding free energy” value is -0.1 kcal/mol.

Take ATAATCACGTGTGATT: the “relative binding free energy” value worked out at 0.27 kcal/mol.

Take CTAGGCACGTGCGTGG: the “relative binding free energy” value was -0.19 kcal/mol.

Take AACGGCACGTGTTGTG: the “relative binding free energy” value was -0.02 kcal/mol.

Regarding GTATCCACGTGTATGT, the “relative binding free energy” value is 0.08 kcal/mol.

CGAGGCACGTGGGGGT: the “relative binding free energy” value is -0.21 kcal/mol.

On to TGCGCCACGTGGTGGT, for which the “relative binding free energy” value is -0.12 kcal/mol.

With ACGGGCACGTGGGGTC, the “relative binding free energy” value is -0.2 kcal/mol.

In the case of GAGTACACGTGATTTG, the “relative binding free energy” value came out at 0.26 kcal/mol.

For GGTGTCACGTGGTACT, the “relative binding free energy” value was 0 kcal/mol.

As for GGCCGCACGTGTAGGG, the “relative binding free energy” value worked out at 0.04 kcal/mol.

On to GATGACACGTGATAGT, for which the “relative binding free energy” value is 0.23 kcal/mol.

AGTGGCACGTGGATAC: the “relative binding free energy” value was -0.01 kcal/mol.

Turning to TGTTCCACGTGTCTTG, the “relative binding free energy” value amounted to 0.03 kcal/mol.

CCAGGCACGTGGGGCG: the “relative binding free energy” value is -0.18 kcal/mol.

TGGAACACGTGGCGGG: the “relative binding free energy” value is 0.05 kcal/mol.

As for CCTTGCACGTGTGTTA, the “relative binding free energy” value was 0.15 kcal/mol.

Turning to GTATTCACGTGTCGAT, the “relative binding free energy” value worked out at 0.22 kcal/mol.

In the case of TGTTTCACGTGCGAGA, the “relative binding free energy” value amounted to 0.14 kcal/mol.

For GCCGGCACGTGAAGGG, the “relative binding free energy” value is 0.12 kcal/mol.

On to GCGCACACGTGGGAGG, for which the “relative binding free energy” value amounted to 0.04 kcal/mol.

In the case of AGGCTCACGTGGGTTA, the “relative binding free energy” value is 0.13 kcal/mol.

For TTGCACACGTGGAGGT, the “relative binding free energy” value was -0.05 kcal/mol.

Regarding GTAAGCACGTGTTAGA, the “relative binding free energy” value was -0.07 kcal/mol.

For the sequence GTCGTCACGTGCTGAG, the “relative binding free energy” value is 0.11 kcal/mol.

Take TGATACACGTGGGTGC: the “relative binding free energy” value is -0.17 kcal/mol.

Turning to AATTGCACGTGTGCGG, the “relative binding free energy” value came out at 0.05 kcal/mol.

Regarding TGTAACACGTGTGACG, the “relative binding free energy” value was 0.11 kcal/mol.

CGTGACACGTGTGGTT: the “relative binding free energy” value was -0.03 kcal/mol.

As for GTGGTCACGTGTGAGG, the “relative binding free energy” value was determined as 0.17 kcal/mol.

For TGATGCACGTGGTTTA, the “relative binding free energy” value was determined as 0.05 kcal/mol.

For the sequence TTTTACACGTGGTGGA, the “relative binding free energy” value is 0.01 kcal/mol.

TTTAGCACGTGAGTCG: the “relative binding free energy” value turned out to be 0.03 kcal/mol.

Regarding GTTGTCACGTGGAGTA, the “relative binding free energy” value was 0.18 kcal/mol.

For the sequence GCAGTCACGTGTTGGG, the “relative binding free energy” value came to 0.09 kcal/mol.

On to TTGGACACGTGTTTTG, for which the “relative binding free energy” value was determined as 0 kcal/mol.

As for TTTGCCACGTGAGTTG, the “relative binding free energy” value is 0.12 kcal/mol.

On to ATGCTCACGTGGTTGA, for which the “relative binding free energy” value was determined as 0.1 kcal/mol.

With CTGTACACGTGATGAT, the “relative binding free energy” value worked out at 0.22 kcal/mol.

On to TGTCTCACGTGAAGTT, for which the “relative binding free energy” value worked out at 0.3 kcal/mol.

Take AGAGGCACGTGTTTCG: the “relative binding free energy” value is -0.11 kcal/mol.

For the sequence GGGATCACGTGGGTAT, the “relative binding free energy” value stood at 0.11 kcal/mol.

In the case of AAATGCACGTGAGTTA, the “relative binding free energy” value worked out at 0.25 kcal/mol.

Turning to GGGATCACGTGTGAGT, the “relative binding free energy” value stood at 0.29 kcal/mol.

Consider CATTACACGTGATGTT, for which the “relative binding free energy” value was determined as 0.22 kcal/mol.

For GCTAACACGTGTGGTT, the “relative binding free energy” value amounted to 0.23 kcal/mol.

With CTGGTCACGTGGGGGG, the “relative binding free energy” value is -0.05 kcal/mol.

On to TATTTCACGTGCAGGT, for which the “relative binding free energy” value is 0.16 kcal/mol.

As to TGTCTCACGTGGGGGA, the “relative binding free energy” value was 0.1 kcal/mol.

TTTGGCACGTGCTAGA: the “relative binding free energy” value is -0.25 kcal/mol.

Turning to GGGTTCACGTGCATTG, the “relative binding free energy” value turned out to be 0.32 kcal/mol.

ATTTCCACGTGTGGGT: the “relative binding free energy” value turned out to be 0.07 kcal/mol.

For CAGCGCACGTGAGGGG, the “relative binding free energy” value was determined as 0.12 kcal/mol.

As to ATTACCACGTGGAGGG, the “relative binding free energy” value was -0.06 kcal/mol.

Turning to TTCTACACGTGCTGGT, the “relative binding free energy” value was 0.12 kcal/mol.

Consider TAATTCACGTGTTAAG, for which the “relative binding free energy” value is 0.21 kcal/mol.

In the case of CGTAACACGTGTGTGG, the “relative binding free energy” value was -0.1 kcal/mol.

Turning to AATTTCACGTGTTAGA, the “relative binding free energy” value turned out to be 0.23 kcal/mol.

Turning to CGATGCACGTGGTTGG, the “relative binding free energy” value amounted to 0.11 kcal/mol.

Turning to GTAAGCACGTGTAGTT, the “relative binding free energy” value is 0.05 kcal/mol.

On to TATCTCACGTGAGCGG, for which the “relative binding free energy” value is 0.48 kcal/mol.

Turning to GTTGTCACGTGGTACA, the “relative binding free energy” value was 0.12 kcal/mol.

In the case of TAATACACGTGAGTTT, the “relative binding free energy” value is 0.25 kcal/mol.

Regarding GTGACCACGTGGGGTC, the “relative binding free energy” value is -0.09 kcal/mol.

TGGATCACGTGGTTGT: the “relative binding free energy” value stood at 0.09 kcal/mol.

For the sequence AGGGGCACGTGTATGG, the “relative binding free energy” value is -0.02 kcal/mol.

With TGGAGCACGTGGAAAA, the “relative binding free energy” value came out at 0.13 kcal/mol.

TAAAGCACGTGTTCGG: the “relative binding free energy” value is -0.07 kcal/mol.

For TGCTACACGTGTAAGT, the “relative binding free energy” value was 0.21 kcal/mol.

As for GGTGGCACGTGAAGCG, the “relative binding free energy” value is 0.02 kcal/mol.

For TGACTCACGTGGGTGT, the “relative binding free energy” value is -0.05 kcal/mol.
